The values that follow come from article PMC4336329 (PLoS ONE, 2015).

Each structure is given as a SMILES string. Screen size: about 310,000 compounds; about 2,200 (0.71%) showed an effect of 50% or more. Effects have a minus sign here. Some of the results follow.

The target of the assay is human ether-à-go-go-related gene (hERG) potassium channel (human, UniProt Q12809). The assay can be described thus: primary screen, population patch clamp on CHO cells stably expressing hERG.
Sequence of human ether-à-go-go-related gene (hERG) potassium channel (Q12809 whole entry, looked up): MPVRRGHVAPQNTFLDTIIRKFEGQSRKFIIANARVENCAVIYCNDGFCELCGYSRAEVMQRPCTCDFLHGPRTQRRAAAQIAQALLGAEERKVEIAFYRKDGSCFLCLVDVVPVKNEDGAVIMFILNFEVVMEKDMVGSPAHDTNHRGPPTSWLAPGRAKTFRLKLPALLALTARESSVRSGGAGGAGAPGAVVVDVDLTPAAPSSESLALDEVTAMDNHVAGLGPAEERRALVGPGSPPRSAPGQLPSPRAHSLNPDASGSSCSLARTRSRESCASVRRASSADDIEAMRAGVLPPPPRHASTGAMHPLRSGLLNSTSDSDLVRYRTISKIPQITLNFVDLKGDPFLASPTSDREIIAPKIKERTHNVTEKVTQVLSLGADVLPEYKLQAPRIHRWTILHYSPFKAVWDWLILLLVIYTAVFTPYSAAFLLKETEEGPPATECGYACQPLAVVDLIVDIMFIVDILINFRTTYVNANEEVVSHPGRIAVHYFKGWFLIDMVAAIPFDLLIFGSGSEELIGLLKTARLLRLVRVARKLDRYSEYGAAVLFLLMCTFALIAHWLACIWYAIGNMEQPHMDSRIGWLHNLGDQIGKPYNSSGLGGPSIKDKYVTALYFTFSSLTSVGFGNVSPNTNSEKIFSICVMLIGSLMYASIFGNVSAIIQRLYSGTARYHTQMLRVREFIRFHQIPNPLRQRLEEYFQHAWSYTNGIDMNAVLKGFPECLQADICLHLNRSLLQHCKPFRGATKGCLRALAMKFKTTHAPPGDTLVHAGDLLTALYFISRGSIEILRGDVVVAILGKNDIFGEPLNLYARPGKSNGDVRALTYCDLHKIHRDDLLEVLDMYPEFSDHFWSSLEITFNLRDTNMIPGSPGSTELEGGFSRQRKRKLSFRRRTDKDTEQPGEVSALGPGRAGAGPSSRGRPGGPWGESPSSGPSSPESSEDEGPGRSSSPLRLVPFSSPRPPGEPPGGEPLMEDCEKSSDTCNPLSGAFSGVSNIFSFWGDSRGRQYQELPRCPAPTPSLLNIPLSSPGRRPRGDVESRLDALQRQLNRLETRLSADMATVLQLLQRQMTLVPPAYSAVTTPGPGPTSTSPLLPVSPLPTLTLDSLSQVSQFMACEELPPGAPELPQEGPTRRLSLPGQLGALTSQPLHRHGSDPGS
For `Cc1ccc(/C=N/Nc2ccc(F)cc2)s1`, the “hERG current change (%, negative = inhibition) at 1uM” value came to 18.9%.

For the molecule `N#CCCN(CCN1CCCC1)S(=O)(=O)c1ccc(-c2ccc([N+](=O)[O-])cc2)cc1`, the “hERG current change (%, negative = inhibition) at 1uM” value is reported as -76.5%.

Consider `CC(C)=C1C2CCC1C1C(=O)N(c3ccc(C)c(C)c3)C(=O)C21` (stereo not drawn), for which the “hERG current change (%, negative = inhibition) at 1uM” value is 6.65%.

In the case of `Cc1ccc(Cl)cc1N1CCN(S(=O)(=O)c2ccc3c(c2)NC(=O)C(C)C(=O)N3)CC1` (stereo not drawn), the “hERG current change (%, negative = inhibition) at 1uM” value was 7.93%.

`CC(=O)Nc1ccc(S(=O)(=O)Nc2nccc(C3Cc4ccccc4C(=O)O3)n2)cc1` (stereo not drawn): the “hERG current change (%, negative = inhibition) at 1uM” value was 13.3%.

Take `Cc1cccc(OC(C)C(=O)Nc2ccc(N3CCCCC3)cc2)c1` (stereo not drawn): the “hERG current change (%, negative = inhibition) at 1uM” value was found to be 4.63%.

As to `Cc1ccc(NC(=O)N2CCN(c3ccccn3)CC2)cc1`, the “hERG current change (%, negative = inhibition) at 1uM” value is 6.19%.

With `O=C(O)c1cccc(NC(=S)NC(=O)c2cncc(Br)c2)c1`, the “hERG current change (%, negative = inhibition) at 1uM” value was found to be 8.81%.

For `CC1c2cc3c(cc2CCN1C(=O)c1ccc(Cl)cc1)OCCCO3` (stereo not drawn), the “hERG current change (%, negative = inhibition) at 1uM” value is given as 18.8%.

For the molecule `Cc1c(CN2CCCC(C)C2)c(O)n(CCO)c(=O)c1C#N` (stereo not drawn), the “hERG current change (%, negative = inhibition) at 1uM” value is listed as -0.601%.

For `CCCOc1ccccc1C1SCC(=O)Nc2c1c(=O)[nH]n2C(C)CCC` (stereo not drawn), the “hERG current change (%, negative = inhibition) at 1uM” value turned out to be 12.2%.

Turning to `Cc1ccccc1-c1nc2c3ccccc3nc(=S)n2[nH]1`, the “hERG current change (%, negative = inhibition) at 1uM” value was 16.2%.

As to `c1ccc(-c2nn3c(-c4ccccc4)nnc3s2)cc1`, the “hERG current change (%, negative = inhibition) at 1uM” value is listed as 22%.

Regarding `Cc1ccc(NC(=O)CSc2nnc(-c3ccco3)o2)cc1`, the “hERG current change (%, negative = inhibition) at 1uM” value is on record as 7%.

`CC(C)(C)c1csc(NC(=O)c2ccccc2O)n1`: the “hERG current change (%, negative = inhibition) at 1uM” value is 5.62%.

As to `CN(C)c1ccc(N2C(=O)CC(Sc3ccccc3C(=O)O)C2=O)cc1` (stereo not drawn), the “hERG current change (%, negative = inhibition) at 1uM” value turned out to be 12.4%.

In the case of `CC(=O)c1sc2nc(=O)c(C)nn2c1C`, the “hERG current change (%, negative = inhibition) at 1uM” value turned out to be 3.48%.

As for `CC1(C)CC2(CC(c3ccccc3F)c3ccc(O)c(O)c3O2)NC(=S)N1` (stereo not drawn), the “hERG current change (%, negative = inhibition) at 1uM” value was determined as 14.1%.

Consider `O=C(O)C1C(c2ccccc2)C(C(=O)OCc2ccco2)C1c1ccccc1` (stereo not drawn), for which the “hERG current change (%, negative = inhibition) at 1uM” value is recorded as -0.639%.

Take `CCN1CCCC1CNC(=O)c1ccc2c(=O)n(CCOC)c(=O)[nH]c2c1` (stereo not drawn): the “hERG current change (%, negative = inhibition) at 1uM” value came out at 18.9%.

For `Cc1ccccc1Cn1c([N+](=O)[O-])cnc1C`, the “hERG current change (%, negative = inhibition) at 1uM” value is -0.527%.

`COc1ccc2c(c1)O[C@@H](c1cccc(C(F)(F)F)c1)[C@H](O)C2=O`: the “hERG current change (%, negative = inhibition) at 1uM” value is reported as 9.31%.

As for `CCOC(=O)c1sc(=NC(=O)c2ccc(C)c(C)c2)n(C)c1C`, the “hERG current change (%, negative = inhibition) at 1uM” value is reported as 14.8%.

In the case of `CNC(=O)c1ccc(-c2cc(C(F)(F)F)nn2C)s1`, the “hERG current change (%, negative = inhibition) at 1uM” value amounted to 16.9%.

As to `CCOC(=O)C1=C(C)C(c2ccccc2OC)NC(=S)N1` (stereo not drawn), the “hERG current change (%, negative = inhibition) at 1uM” value is listed as 3.52%.

With `O=C(N/N=C/c1c(Cl)cccc1Cl)c1cccc(F)c1`, the “hERG current change (%, negative = inhibition) at 1uM” value was 4.45%.

As to `Cc1ccnc(NC(=O)CCCc2c[nH]c3ccccc23)c1`, the “hERG current change (%, negative = inhibition) at 1uM” value came to 11.6%.

As for `COC(=O)C1=C(NC(=O)COc2ccc3ccccc3c2)CCS1`, the “hERG current change (%, negative = inhibition) at 1uM” value amounted to 15.5%.

On to `CC(C)(C)c1ccc(/C=N/NC(=O)C(=O)NCCCN2CCOCC2)cc1`, for which the “hERG current change (%, negative = inhibition) at 1uM” value was found to be 0.93%.

For `CC1=C(C(=O)OCC(C)C)C(c2ccsc2)NC(=O)N1` (stereo not drawn), the “hERG current change (%, negative = inhibition) at 1uM” value came out at 12%.

Consider `Cc1ccc2oc(-c3cccc(NC(=O)C4CCCO4)c3)nc2c1` (stereo not drawn), for which the “hERG current change (%, negative = inhibition) at 1uM” value is 7.46%.

Regarding `CCCS(=O)(=O)N1CCN(S(=O)(=O)c2ccc(F)cc2)CC1`, the “hERG current change (%, negative = inhibition) at 1uM” value worked out at 13.4%.

In the case of `CC(C)c1ccc(S(=O)(=O)N2CCC3(CC2)OCCO3)cc1`, the “hERG current change (%, negative = inhibition) at 1uM” value came to 18.2%.

As to `CCc1ccc(OCc2n[nH]c(=S)n2C(C)CCCC(C)C)cc1` (stereo not drawn), the “hERG current change (%, negative = inhibition) at 1uM” value was determined as 4.03%.

For the molecule `CCC1=Nc2ccccc2NC2=C1C(=O)CCC2.Cl`, the “hERG current change (%, negative = inhibition) at 1uM” value is listed as -18.7%.

For the molecule `O=C(NCc1ccc(Cl)cc1)c1ccc(COCC(F)(F)F)o1`, the “hERG current change (%, negative = inhibition) at 1uM” value came out at 7.11%.

For the molecule `CCOc1ccccc1N1CCN(CC(=O)Nc2nnc(CC)s2)CC1`, the “hERG current change (%, negative = inhibition) at 1uM” value was 14.4%.

As for `Cn1c(=O)c2c(ncn2Cc2ccccc2)n(C)c1=O`, the “hERG current change (%, negative = inhibition) at 1uM” value is on record as 10.1%.

Regarding `COc1cc(C(=O)NCC(c2cccs2)N2CCc3ccccc32)cc(OC)c1OC` (stereo not drawn), the “hERG current change (%, negative = inhibition) at 1uM” value is given as 4.14%.

Turning to `CCN(CC)S(=O)(=O)c1ccc2oc(SCC(=O)NCc3ccccc3)nc2c1`, the “hERG current change (%, negative = inhibition) at 1uM” value turned out to be 10.9%.

Consider `CCOc1ccc(N(CC(=O)NCc2ccccc2OC)S(C)(=O)=O)cc1`, for which the “hERG current change (%, negative = inhibition) at 1uM” value was 3.88%.

As to `O=C1C=C(c2ccccc2C(F)(F)F)C[C@@H](c2ccc3c(c2)OCO3)C1`, the “hERG current change (%, negative = inhibition) at 1uM” value amounted to 0.206%.

On to `COc1ccccc1CCNC(=O)c1cccc(S(=O)(=O)N2CCc3ccccc3C2)c1`, for which the “hERG current change (%, negative = inhibition) at 1uM” value was -12.9%.

Consider `Cc1c(NC(=O)CCc2ccccc2)cccc1[N+](=O)[O-]`, for which the “hERG current change (%, negative = inhibition) at 1uM” value is 4.99%.

Consider `COc1ccccc1-n1cnnc1SCC(=O)c1cc(C)n(Cc2cccs2)c1C`, for which the “hERG current change (%, negative = inhibition) at 1uM” value was -1.64%.
